According to the supplement of paper PMC3334620:
Whole data set: some 33,000 sequences, median “E-score (-0.5 to 0.5)” near -0.035, cut for the highest 2% near 0.35. This is one part of the list.

What follows are sequences tested against T1, Pdr3 (UniProt P33200) (assay: PBM E-score (8-mer binding enrichment) (E-score (-0.5 to 0.5)); higher = stronger / more preferred TF binding; most listed sequences are background and not binding sites). Details: protein concentration: 200 nM; construct: GST-full length.
T1 sequence: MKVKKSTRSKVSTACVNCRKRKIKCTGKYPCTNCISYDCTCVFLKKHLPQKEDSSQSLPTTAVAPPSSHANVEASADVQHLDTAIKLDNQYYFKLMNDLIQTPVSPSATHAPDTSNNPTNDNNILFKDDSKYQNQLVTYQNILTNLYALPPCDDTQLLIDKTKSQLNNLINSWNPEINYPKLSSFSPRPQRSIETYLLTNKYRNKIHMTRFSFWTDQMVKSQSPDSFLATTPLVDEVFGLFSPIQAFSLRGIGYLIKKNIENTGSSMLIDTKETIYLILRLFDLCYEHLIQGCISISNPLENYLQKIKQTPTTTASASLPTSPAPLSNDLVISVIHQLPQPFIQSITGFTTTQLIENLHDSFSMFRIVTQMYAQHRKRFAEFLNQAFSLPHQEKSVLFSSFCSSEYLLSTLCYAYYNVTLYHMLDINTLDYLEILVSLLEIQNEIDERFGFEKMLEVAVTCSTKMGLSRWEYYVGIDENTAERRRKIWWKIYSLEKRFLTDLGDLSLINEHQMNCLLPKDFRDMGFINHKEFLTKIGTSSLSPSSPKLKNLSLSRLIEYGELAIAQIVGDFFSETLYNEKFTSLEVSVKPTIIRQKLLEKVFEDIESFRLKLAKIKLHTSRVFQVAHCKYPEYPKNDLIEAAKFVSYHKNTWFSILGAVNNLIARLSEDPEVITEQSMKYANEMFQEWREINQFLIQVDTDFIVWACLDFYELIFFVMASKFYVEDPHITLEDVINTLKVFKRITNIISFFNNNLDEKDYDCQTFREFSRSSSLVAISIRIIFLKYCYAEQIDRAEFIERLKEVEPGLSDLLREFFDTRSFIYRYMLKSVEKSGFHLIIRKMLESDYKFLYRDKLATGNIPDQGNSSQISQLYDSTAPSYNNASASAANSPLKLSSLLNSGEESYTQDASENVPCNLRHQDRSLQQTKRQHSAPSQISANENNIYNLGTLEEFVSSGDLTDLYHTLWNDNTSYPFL
Outline: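 GST-tagged yeast TFs (full-length or DNA-binding domain) were made by PURExpress in vitro transcription/translation and applied at about 100-200 nM to universal all-10-mer Agilent arrays. The arrays were made double-stranded by primer extension, on fresh or once-stripped slides. Bound protein was detected with fluorescent anti-GST, and scans were normalised with masliner. Each ungapped eight-base word, pooled with its reverse complement, received an E-score (modified Wilcoxon-Mann-Whitney statistic) from the Universal PBM Analysis Suite.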

Row | Sequence | PBM E-score
1 | CCGTACAC | 0.0553
2 | CAAGGGGG | -0.403
3 | ACTGAACT | -0.141
4 | AGGCTGCA | -0.186
5 | GACCTATA | 0.0796
6 | CAGGTTGC | -0.0469
7 | CCGGCTAG | 0.183
8 | GGCCACCC | 0.136
9 | GGGAGAAA | -0.0138
10 | GTGTATTA | 0.0101
11 | AGTGCACT | -0.133
12 | CACATTGG | 0.00753
13 | ATCAATCA | 0.0272
14 | CGGCTGAA | 0.133
15 | ATCTGGAG | -0.0781
16 | TAGGTTGA | -0.101
17 | CCGTGTGC | 0.183
18 | GCAAGACC | 0.0414
19 | CCTTCGGC | 0.038
20 | CGCAGCCC | 0.223
21 | GGACAGCC | 0.245
22 | GGCCGACA | 0.0905
23 | AGCGGCCG | 0.265
24 | CGGCTTCC | 0.311
25 | AACCCTCA | -0.19

Row | Sequence | PBM E-score
26 | GCGCTAGC | -0.125
27 | TGCTGAAA | -0.0805
28 | AGCGCATC | -0.118
29 | CATCGCGG | 0.193
30 | ATGCCATG | -0.113
31 | CTGTCTCC | 0.218
32 | ACGCTCCT | -0.238
33 | TACAGGTA | -0.219
34 | AAATCACT | -0.108
35 | AAACCGGC | 0.283
36 | GCTTGCAC | -0.0866
37 | CCTATCAC | -0.107
38 | CGAGACGA | 0.0388
39 | GGCGCCCC | 0.125
40 | ATTAGGCA | -0.0942
41 | AGGAATAT | 0.0903
42 | CGCAGGCG | -0.0861
43 | ACGAGACC | -0.0325
44 | AGCGATAG | -0.327
45 | CCATGTTA | -0.0874
46 | CCTCGTAA | 0.0306
47 | AACTTCTA | -0.217
48 | TAATACCA | 0.131
49 | AGCGTCGG | 0.0549
50 | ACAGAGAG | -0.296

Row | Sequence | PBM E-score
51 | CCAGTTTA | -0.227
52 | CAGGGCGG | 0.165
53 | AACAACGA | -0.0839
54 | GCGGTCAC | 0.0135
55 | AGGTCACA | -0.164
56 | AATGACAA | -0.0744
57 | TAGGCGAA | -0.236
58 | AGGACCTA | 0.139
59 | AGTCTGTC | -0.22
60 | ACTAGTGG | -0.00603
61 | ATAGCAAC | -0.0447
62 | AAGAGGGA | -0.239
63 | CGACGCAA | 0.0575
64 | TCGCCGCA | 0.132
65 | AGAGACGG | 0.06
66 | AGGTGTGA | -0.138
67 | TATAGCCA | 0.0158
68 | CGGCGGCA | 0.226
69 | CGGCAGTC | 0.129
70 | CCAGTTCC | 0.318
71 | AAAGATCT | -0.0765
72 | TACTTATA | -0.14
73 | CATGTCGA | 0.0523
74 | TAATTTGA | -0.102
75 | AAACCTTT | -0.129

Row | Sequence | PBM E-score
76 | ATACGTTG | -0.168
77 | CGCATCAC | -0.0776
78 | ATCTCGCC | 0.014
79 | TCCGGCCA | 0.312
80 | ATCAATAA | -0.0512
81 | CGCTGCGC | -0.0056
82 | AAGTCGAA | -0.188
83 | CGTCAAAC | -0.156
84 | AACCGCTA | -0.14
85 | AACCAATT | 0.0667
86 | AAGCTAGT | -0.0875
87 | CTTTGAAA | -0.209
88 | TCAGTCCA | -0.407
89 | GCTGTCCA | 0.0841
90 | AACAGCAT | -0.0321
91 | ATAGGGCA | -0.0798
92 | CCATACCG | 0.058
93 | TATGAATA | -0.0242
94 | AGTACCTA | -0.111
95 | AGTTAACA | 0.0226
96 | GTAAACAC | 0.0559
97 | CACTTTCA | -0.203
98 | GCATGACC | -0.0274
99 | GACCGTCA | -0.127
100 | CCAGGGCA | -0.0268

Row | Sequence | PBM E-score
101 | CCCAGGAG | -0.226
102 | ACGGGATA | 0.38
103 | AGTACTTA | -0.163
104 | ATAAGGTC | 0.139
105 | AGCCAACG | -0.141
106 | AGCGAACT | -0.187
107 | GACATATC | 0.0956
108 | CAGAACAA | 0.0215
109 | CCTCGAGC | -0.0447
110 | AATGACCA | 0.0227
111 | CGTGCACA | -0.15
112 | AGTTCGAC | -0.086
113 | TCGGAAAA | 0.4
114 | GCTCCGCA | 0.178
115 | ATGCATTC | 0.0343
116 | CCCTCGAA | -0.221
117 | GCAACTTA | 0.119
118 | GTGCTAAA | 0.00725
119 | ACCACTAC | 0.0513
120 | CATAGCCG | 0.231
121 | TCCCGCGA | 0.287
122 | ACTTATGC | -0.166
123 | GAGATATC | 0.115
124 | CGCCGTAG | 0.117
125 | CAAAACTC | 0.00097

Row | Sequence | PBM E-score
126 | GGCGAACC | 0.0603
127 | GCCCGCTA | -0.201
128 | CGAATTAC | -0.0526
129 | TGATGACA | -0.0129
130 | AGGGTGCG | -0.167
131 | CGGGTCCA | 0.0381
132 | CCGCGCGG | 0.473
133 | ACAATACA | 0.0212
134 | ACCAATAC | -0.136
135 | TTAACAAA | 0.0347
136 | CGATACAA | 0.0404
137 | AGAGAGCA | -0.0698
138 | CACAAATA | -0.141
139 | GCGTCGCA | -0.0451
140 | AGGAGCGG | -0.152
141 | AAGGCCAC | -0.0643
142 | CCACCAGC | 0.0384
143 | GCCGGGAC | 0.316
144 | GACGCCGA | 0.132
145 | CCCCATTC | 0.0934
146 | GAAACTGC | -0.0117
147 | CGAGTTCC | 0.226
148 | TAATCATA | -0.066
149 | ATGCCACA | -0.135
150 | GGAGGTAC | -0.0123

Row | Sequence | PBM E-score
151 | AAACTTTG | 0.0946
152 | AACGAAAC | 0.0226
153 | GGCGTCAC | -0.0552
154 | GGGCCCTA | 0.0142
155 | ACGATCAG | -0.108
156 | CTGAGCCA | -0.152
157 | TGAAAGCA | -0.084
158 | AACATCTC | -0.144
159 | GCTCCAAC | -0.0247
160 | GTAACCTA | 0.119
161 | CTTGATAC | -0.287
162 | GAGCACTC | 0.0159
163 | GGACACCA | 0.167
164 | CAGGCGCC | 0.0233
165 | GCCATAAC | -0.101
166 | AAGCGCAC | -0.0371
167 | CTTCCACA | -0.166
168 | ATCGCCAC | 0.0847
169 | AGGATTAC | -0.141
170 | CCTAAAAC | -0.159
171 | TACTCATA | -0.042
172 | ATGTTAAG | -0.105
